Data: patent US20210030857A1 (NGM BIOPHARMACEUTICALS, published 2021)

Tests used:
Assay in all cases: cell-based or functional assay
[1] = molecular target: T1, human beta klotho / human FGFR1c receptor complex on cells (human, UniProt Q86Z14 1-1044; P11362 22-822)
[2] = molecular target: human beta klotho / human FGFR3c on L6 cells (human, UniProt Q86Z14 1-1044; P22607 23-806)
[3] = molecular target: human beta klotho / human FGFR4 on L6 cells (human, UniProt Q86Z14 1-1044; P22455 22-802)
[4] = molecular target: T1, human beta klotho / human FGFR1c …; remark: listed apart in the source

B1: FGF19 (ligand)
chain: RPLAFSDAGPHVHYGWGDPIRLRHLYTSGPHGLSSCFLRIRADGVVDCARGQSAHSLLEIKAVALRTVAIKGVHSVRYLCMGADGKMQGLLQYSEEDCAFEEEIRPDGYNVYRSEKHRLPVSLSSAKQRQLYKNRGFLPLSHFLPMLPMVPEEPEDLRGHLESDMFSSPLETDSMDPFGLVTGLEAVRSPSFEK
- L6 huKLB/R1c reporter assay EC50 [1]: 2.66 nM
- L6 huKLB/R3c reporter assay EC50 [2]: 2.1 nM
- L6 huKLB/R4 reporter assay EC50 [3]: 0.05 nM
- hAdip pERK assay EC50, Experiment - B [4]: 5.49 nM
